{"source": "the supplement of paper PMC11417369", "note": "This is one part of the list.", "data": [{"test_system": "PfSIP2 AP2 domain 1 (GST-tagged)", "assay": "gcPBM binding intensity (ln(normalized median fluorescence intensity)); higher = stronger DNA binding", "in_short": "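The binding buffer was 1× PBS containing 1% milk, 0.2 mg/ml BSA, 0.5% salmon testes DNA and 0.03% Triton X-100. In it, GST-tagged P. falciparum DNA-binding domains expressed in E. coli were applied for 1 h to an Agilent 4 × 180k array of primer-extended double-stranded 36-bp intergenic genomic probes plus negative controls. Binding intensity, read with Alexa488 anti-GST antibody and a 488 nm scan, is the highest Masliner-normalised natural-log median intensity across replicate spots of either probe orientation.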", "values": [{"sequence": "ATCAAATAGAGACACACACACCTAAACATAAAAGAA [CACACA_site7321]", "gcPBM binding intensity (ln)": 7.05}, {"sequence": "AATATTTTATTTTGGGTGCAAAAGAATATTATTTCA", "gcPBM binding intensity (ln)": 10.4}, {"sequence": "GTGTGAAACATAAACACACACAAAAAGAAAAAATAG [CACACA_site1227]", "gcPBM binding intensity (ln)": 6.91}, {"sequence": "TGATATTTACAAATATTAAGATCTTATATTTTTTTT [CACACA_negctrl_site617]", "gcPBM binding intensity (ln)": 6.85}, {"sequence": "AATATAAATATTAAAACACACATAAAAAGATTATTA [CACACA_site1764]", "gcPBM binding intensity (ln)": 6.8}, {"sequence": "TATATATATATATTACGTACATAGAACTTTATAAAA [XGTACX_site4485]", "gcPBM binding intensity (ln)": 8.86}, {"sequence": "GTATATATATATATATGTACTAATTAGTAGTTTACG [XGTACX_site6274]", "gcPBM binding intensity (ln)": 7.46}, {"sequence": "TATTACATAATACAAAGTACATATATTTTTTTATTT [XGTACX_site7061]", "gcPBM binding intensity (ln)": 7.02}, {"sequence": "ATATTTATACATAAATGTACTTTTATATATTTAATA [XGTACX_site3020]", "gcPBM binding intensity (ln)": 6.99}, {"sequence": "AATATTATAAATGATACACACTTAAAATACACGCAC [CACACA_site7305]", "gcPBM binding intensity (ln)": 7.82}, {"sequence": "AGCACATATATATTATGTACATATAACTTCCCAGTG [XGTACX_site7095]", "gcPBM binding intensity (ln)": 7.05}, {"sequence": "CGATACTTTAGGTGTACACAAATATACATGAATGAG [CACACA_site5189]", "gcPBM binding intensity (ln)": 7.76}, {"sequence": "AAAAAAAAGGAAATAACACACATGTATTTATTTATA [CACACA_site4966]", "gcPBM binding intensity (ln)": 6.7}, {"sequence": "TTATTATAAATGTTTTGTACGTACATCCGAAAATAA [XGTACX_site2175]", "gcPBM binding intensity (ln)": 7.47}, {"sequence": "TATAATCATATTAAGGGTACATATGTGTAAATATTT [XGTACX_site6018]", "gcPBM binding intensity (ln)": 7.1}, {"sequence": "CTTTAAAACCGGTACTGTACACATAGTATTATTATC [XGTACX_site2602]", "gcPBM binding intensity (ln)": 7.09}, {"sequence": "ATAATAATAATATAACCAAGGAAATATAATATTTGT [XGTACX_negctrl_site485]", "gcPBM binding intensity (ln)": 7.01}, {"sequence": "AAAAAAAAATTATTCACACATATATATATATATATA [CACACA_site5579]", "gcPBM binding intensity (ln)": 9.38}, {"sequence": "GAACCATAAGGAACGACACACAAAGATAAATAAATA [CACACA_site3472]", "gcPBM binding intensity (ln)": 7.02}, {"sequence": "AAAAATAAAAAAAGCACACACATATATATATATATA [CACACA_site1885]", "gcPBM binding intensity (ln)": 9.8}, {"sequence": "AAATTTGCTTTTATTTTACACACTTGCTCCTGTTGT [CACACA_site8276]", "gcPBM binding intensity (ln)": 6.86}, {"sequence": "ATAATATTTTAATGCACACACACAAAAAAAAAAAAA [CACACA_site2891]", "gcPBM binding intensity (ln)": 7.37}, {"sequence": "AAACAATCTAAAAGTAGTACAATAAAAATATATATA [XGTACX_site5607]", "gcPBM binding intensity (ln)": 7.52}, {"sequence": "TTATTGCATTGTTTTTATAAAAAAAAAAAAAAAATT [XGTACX_negctrl_site104]", "gcPBM binding intensity (ln)": 6.9}, {"sequence": "TATTTATTGTGATACTTATATTACTTAATGATTAAA [CACACA_negctrl_site676]", "gcPBM binding intensity (ln)": 6.87}, {"sequence": "TAATTATGCAGACACACACACACACCCAACTAAAAA [CACACA_site2569]", "gcPBM binding intensity (ln)": 7.27}, {"sequence": "CTATTTCATGGACACACACACACAAACAAACATATA [CACACA_site4696]", "gcPBM binding intensity (ln)": 7.6}, {"sequence": "ATATATTATATAAAGTGTACAAAAAAAATATATAAA [XGTACX_site8065]", "gcPBM binding intensity (ln)": 7.12}, {"sequence": "ATTAATAAGAAATATACACACATGGATAAATACATA [CACACA_site1872]", "gcPBM binding intensity (ln)": 6.81}, {"sequence": "TTTCTTGCTACATGAAGTACACTTTCTATGACTCGT [XGTACX_site5583]", "gcPBM binding intensity (ln)": 7.07}, {"sequence": "ATATATATTTTATTCACACATAAGATTATAAAACAT [CACACA_site5369]", "gcPBM binding intensity (ln)": 7.02}, {"sequence": "TATGATATAATTATGTGTACACAATTTTTTTTTTTT [XGTACX_site1084]", "gcPBM binding intensity (ln)": 7.48}, {"sequence": "TGTGTTCAGTATTGCACACACACAACAAAATAAAAA [CACACA_site8017]", "gcPBM binding intensity (ln)": 7.32}, {"sequence": "AATTTTAAGAGCTATACATGCACTTCATAAAAAGTG [TGCATGCA_site180]", "gcPBM binding intensity (ln)": 8.45}, {"sequence": "ATAATAAAAAAAAATGCACACATATATATATATATA [CACACA_site8766]", "gcPBM binding intensity (ln)": 9.29}, {"sequence": "AATATATATATATATACACACACACCGATATATATA [CACACA_site8158]", "gcPBM binding intensity (ln)": 7.64}, {"sequence": "TAACAATTAATAAAAGGTACACTTGAATATGCACCA [XGTACX_site2717]", "gcPBM binding intensity (ln)": 10.5}, {"sequence": "TTAATATTTAGACATGCATGCTAATTACTATATATA [TGCATGCA_site27]", "gcPBM binding intensity (ln)": 6.96}, {"sequence": "TTATAAATATAAAAATGTACAGAAAAAAAAAATAAA [XGTACX_site863]", "gcPBM binding intensity (ln)": 7.15}, {"sequence": "ATAGAACTATATTGCACACATAATATATATATATAT [CACACA_site3189]", "gcPBM binding intensity (ln)": 9.35}, {"sequence": "GTAAAAAATATGACAAGTACAAGAAAAGAAAAAAGT [XGTACX_site7906]", "gcPBM binding intensity (ln)": 7.61}, {"sequence": "AAAAGATTTATACATACACACATATTATATTCACAT [CACACA_site3713]", "gcPBM binding intensity (ln)": 7.02}, {"sequence": "TTATAATATATATACAGTACATATATAAAATAATAT [XGTACX_site5917]", "gcPBM binding intensity (ln)": 7.01}, {"sequence": "TTTTCTTGGTTCAGTGTGCACTTATATATATATATA", "gcPBM binding intensity (ln)": 9.93}, {"sequence": "TAATATAAAGAAAAGGAACACACAAATATATATATA [CACACA_site8049]", "gcPBM binding intensity (ln)": 8.72}, {"sequence": "TTATTTTATAATAAAAGTACACAAAAAAAAAAAAAA [XGTACX_site7668]", "gcPBM binding intensity (ln)": 7.03}, {"sequence": "ATATATATAATATGCGGTACACATTAATTAAATCAT [XGTACX_site5702]", "gcPBM binding intensity (ln)": 7.81}, {"sequence": "TTATTTCTCTTTTCAGTGCATTTTATAACAAAAAAA [GTGCAC_site9930]", "gcPBM binding intensity (ln)": 8.96}, {"sequence": "GTAGAGCATAATAAAACACACACATACATACATATA [CACACA_site8217]", "gcPBM binding intensity (ln)": 7.32}, {"sequence": "ATGGACATCTATTGTTGTACACATTTTCCCATAACA [XGTACX_site5429]", "gcPBM binding intensity (ln)": 7.26}, {"sequence": "TTTCAAAAATGAGTTACACACACACGGATATAAATA [CACACA_site7116]", "gcPBM binding intensity (ln)": 6.92}, {"sequence": "GAATATAAAATATATATATATATATATATATATATA [GTGCAC_negctrl_site425]", "gcPBM binding intensity (ln)": 9.24}, {"sequence": "ATATAATAAAATGACACACGCATATATATATATATA [CACACA_site2789]", "gcPBM binding intensity (ln)": 9.25}, {"sequence": "TTATATTTATTTATTTGTACATATTTTTTTTTATAT [XGTACX_site1669]", "gcPBM binding intensity (ln)": 7.02}, {"sequence": "TTTCTTTTTAAATATATACACACCGTGGGTACATAT [CACACA_site9102]", "gcPBM binding intensity (ln)": 7.05}, {"sequence": "TCATATCTTTTGAGCACACATATATATATATAAAGG [CACACA_site3338]", "gcPBM binding intensity (ln)": 7.35}, {"sequence": "ATTAATATTCTATATGCATGTGAACCATGGTATATA [TGCATGCA_site430]", "gcPBM binding intensity (ln)": 7.01}]}]}
